Assay results published in the supplement of paper PMC10681739.
The full ranking holds about 2,700 sequences; the median of “arbitrary fluorescence units” is about 4,100, and the highest 2% start at about 54,000. The list shows a part of the results.

biological target: T1, ETS1 (UniProt P14921); assay: ETS1 binding intensity (PBM fluorescence) (arbitrary fluorescence units); higher = stronger binding; conditions: ETS1 concentration 10 nM
T1 sequence: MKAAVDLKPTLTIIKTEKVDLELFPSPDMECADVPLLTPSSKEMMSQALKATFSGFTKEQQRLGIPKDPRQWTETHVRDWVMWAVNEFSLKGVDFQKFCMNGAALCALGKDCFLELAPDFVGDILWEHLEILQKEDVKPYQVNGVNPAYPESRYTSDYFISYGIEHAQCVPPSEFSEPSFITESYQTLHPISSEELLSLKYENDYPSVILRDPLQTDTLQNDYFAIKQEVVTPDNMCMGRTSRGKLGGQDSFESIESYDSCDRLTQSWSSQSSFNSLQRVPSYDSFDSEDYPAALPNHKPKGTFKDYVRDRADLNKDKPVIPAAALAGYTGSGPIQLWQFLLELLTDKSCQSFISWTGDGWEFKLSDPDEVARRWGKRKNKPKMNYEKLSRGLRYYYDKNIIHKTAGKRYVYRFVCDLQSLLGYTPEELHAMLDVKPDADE
Procedure: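 gcPBM on wild-type 36-bp genomic probes with two neighbouring ETS1 sites (4-24 bp apart). Recombinant human ETS1 (10 nM) was detected with anti-ETS1 antibody fluorescence. Values are medians over 3 replicate spots. The probes sit in constant array flanks that are not printed.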

| Sequence | ETS1 binding intensity |
| --- | --- |
| AAGTAGAAGCGGAAGTAGTCGCCTTCCTGGGATTGT | 15200 |
| AGAGGCAGGAAGCCAGAACACTGCATTTCCTGTGTC | 6050 |
| TGGCCCCCGGAACTCCTCCGTGCACTTCCGGCGGAC | 7620 |
| CTGGAGCGGAAGTGGAGGAGCGGCCGGAAGTAGCCG | 21000 |
| AGTTAACAGGATGATGACTTAGAAGGAAGTGAACCC | 437 |
| CACAGCCCTTCCGCCACCAGCTTCTTCCTGCCCTAC | 4970 |
| CTCCCCACTTCCTCTGGTGGGGCAGGAAGCTGAGTG | 9420 |
| CTACACATCCTTGAAGCCACACTGACATCCTCCTTT | 1630 |
| AAAAAAAAAGGAAGTAGACTCATTTCCGCAGCCCCT | 4700 |
| AAAAGTTGCCCTTCCGGTTATTTCCCTTCCTGTTTG | 21000 |
| GCAGAAGGGAGGAAGAAGCAGGCGGAAGCAGCCGGT | 522 |
| GCTTCAACATCCCATAGTTAGTCATTTCCTCTATTA | 1330 |
| TTGTTAGGAAAATTTCCGCTTCCTGTTGCCAGCCAC | 16200 |
| GCTTGCTTTCCGCCATGATTGTAGGTTTCCTGAGGC | 1350 |
| AGCTACAGGAAAATCTGTGAGTAACTTCCTGACAAG | 549 |
| GCGGCTCACCACATCCTCCTCTTCCTCCCCACTCTG | 3110 |
| GACAGGATGTGCAGCTGCAGCAGAAAGCTTCCTGTC | 10800 |
| CGCACTTCCTGGCGTCGCCTGCGGGGGCGGAAACGC | 24900 |
| AAACGCCGGAAGTCTGACCAGCCTCAGGATGTGCCT | 14200 |
| AAGGGCTGGCAAGGAAGCCACATCCTCATACAGCTC | 412 |
| AGCCAGGGCTGCTTCCTTACAGGAAGTGCTTCAGAG | 5170 |
| TAAGATCACAGGAAACAAACCACGGATATGCCAGAA | 972 |
| GCTGGGCTTCCTGCCTGTTCTGCAGCTTCCTGCCAC | 17300 |
| TCCACTTCCCAGCAGCCCTGCTGACTCCGGAAACTG | 1050 |
| TAGTCCTGAAACTTCCTCTGCTTCCTCCTCCTGCCC | 2700 |

| Sequence | ETS1 binding intensity |
| --- | --- |
| GTGCGGGTAGGTTCCGGTAGCATCCGGGAGACCCGG | 3850 |
| CGACCGGAAGCCGCAGGTGGGTGAAGCGGAAACGCT | 19100 |
| ATAACTTCCTCCACTGTGGGACCCAGAAGGAAGTTA | 7900 |
| ACTGAAGGAAATGAAAATCTCAACGTTTCCTTTATT | 560 |
| CCGTAGGGCGGATGCTCCAGTGACTTCCTGGCCCTA | 3330 |
| CCTGCATCCTGCTCACCGAGTGAGAATTTCCTGTGA | 8500 |
| GCCCAGCTGCTTCCTATAAAAGAGGATGTGAGCTGT | 961 |
| TGGAGCTGCAGGATATTTGTTCTATCCTGTTTACAG | 390 |
| CCAGCGGGACATCCTGCCTCACATCCTGGCAGTTGA | 17100 |
| GCCAGGATGCTGGAGAGTAGGGCAAGCAGGAAGCTG | 533 |
| AGGGAGGGTTTCCTTGCTCTGATTTCCTCTTGGTTA | 1110 |
| GCCGGACCAGGAAAACGCTCCGCTTCCGGCACTGCT | 6370 |
| ATTGCACAGATTAGGAAACGGAAGCATCTGAGTAAC | 270 |
| GCTAATGGGACATCCGCCCATTTTCCGCTGGGTCTG | 11700 |
| GGGAGGGCTCCAGGAAGGTGAGGAAGTAACGGCATC | 260 |
| GGACACAGCCGGAATGTGCAACTTCCGGCAAAAAAC | 13100 |
| GAATGGGTAGGAAGTGCTCTATCAGGAAAAAGGCAA | 512 |
| AGGCGGCGGCGGAAGCGCTGTGGGGAAGTCGAGGCA | 2090 |
| TTCAGCCAAAGGACGGAAGGAAGCTAGGCGTCCGCA | 192 |
| GCCGGCGCGCGCCGGAAGCCGGAAGCGCGGCAGCGG | 9490 |
| AAACTCCAGAGGAAGCCGGCTAAGGATGTGCTTGTT | 191 |
| GCCCTCCCTTGTTTCCGCTGCATCCAGACTTCCTCA | 10200 |
| TAAGAGTGGGCCGGATGTGTTTCCTGCTACCCCAGG | 13600 |
| AAGAGTTCCGGTCCGATTCTGCGAAAGAGGAAGTGA | 33700 |
| TCTTCTCTTCCGGCGCCAGGCACACATCCGGGAGCG | 14200 |

| Sequence | ETS1 binding intensity |
| --- | --- |
| GTGAAGGGAAGTAACTCCAGAGAAACGGGAAGCTTC | 267 |
| CAATCTTAGACTTCCTCCAACATCCCTATAAAATTC | 3070 |
| GCTTCTTGGGAAGTAGCATGAGCCGGAAGACAGCGA | 251 |
| CAGGAGAGCTTCCCGGAGTCGACCTTCCTGCTGGCT | 549 |
| ACTCGGTAGGAGGGAAGTGGCTTCCTTATCTGCAAA | 356 |
| GAACCCCGGAACCACCACCACTAACGGAACCAGCCC | 321 |
| CAGACACTTCCTTCTCTGCAATAGGAGGAAGTGATT | 7830 |
| AGCGAAAGAGGAAACTGCAGAGGAGGAAGCTGCGCC | 727 |
| TCCCTGCTTCCTGTGTCTCTGTCATTTCCTCCCATT | 26200 |
| CCAGGTGTTTCCTACAAGGTAGGGAGGAAGTATGTT | 660 |
| TGCTTTGCCTTCCTCCCGCTCAGTTTCCTGCTCACT | 1060 |
| AGAAGCGACTTCCTAGATCTCCCGGAAGTCCCTTTC | 6000 |
| CTGTAAATGAGGAAGTGACAGCTTCCTCCTAGAGCA | 2640 |
| AAGAGTAACACACAGGAAGGAAGCTCACTGAGGTGC | 676 |
| CGCCCACTTCCTATCCAGGGAGGAAGTGGCGAGGGC | 11200 |
| GTTTGATCCAGGAAATGGTGTCCTTCCTGTGGACCT | 3960 |
| AGCGCTTCCGGGTCAGCCCCTGCGATACTTCCGGGG | 28000 |
| CTCCAGAGTGGCCGGAAGCTTCCTGGGAGAGGCCTG | 6370 |
| AAATTTCCTGAGGCCTCCCCAGCCATGCTTCCTGTA | 13700 |
| GCTCCACCTTCCGGCCCATGGACACGGATGCCGAGG | 16100 |
| GCGCTTCGGGCCCTTCCGGCTTCCCGGGCCTCCCGG | 8330 |
| GGAGAGGAAGCACAGCTGCAGTGGTGAGGAAATACA | 228 |
| CAGTCCTTCCTGTTTAGTTTATGCCAGGAAATTAAT | 29800 |
| CTCTTGGCAACATCCGGTCACATCCCCTCCGCTATT | 60900 |
| TAGGCGACAGGAAAGGGCGGTGTTTTCCGGCTGGGA | 1800 |

| Sequence | ETS1 binding intensity |
| --- | --- |
| AGTCACTTCCTTCTGCAGGCACACACTTCCTCTATG | 13300 |
| TCGCGACATCCGCCCAGCGGCGGCCGGAATCTCGCG | 22800 |
| CTGCGTCCGTTCCGCCCAGGCCCTTCCGGCTCACGC | 6200 |
| AGCATCTGCTGGGGGAAACGGAAGCAGCCCAGATGG | 774 |
| CCCCTGGCTTCCGCCGGGCGCGAGCGGAAGTTACGT | 14400 |
| TCCTGGAATTTCCCGTCCTCAGACTTCCTGATCCTC | 3820 |
| GAAAACTGGGAGAGGAAGCAGGATTCTGCATCCTGG | 519 |
| GCCGAATTAGTACTTCCGCTTTCCGTGCTGTTTAAC | 24300 |
| AGGCGAGGGCTTCCTGCTGTCCTTCCTGTTTGTAAT | 9500 |
| TGATTCACATCCTGTCTCTGCCTTTTCCTGGCCCTG | 31200 |
| CCTCAGTTCCTGTCTGGTTTTTGCCCGGAAGCCACT | 7440 |
| GGAAAGGAAATGCAAACTTATTTGGCAGGAAAACAA | 952 |
| ACGCGCCGGAAGCCACGAGCCGCATTTCCTGCCGCG | 9480 |
| TGAAGACGGAAACCTGAGAACACCATTTCCTGTGCT | 4470 |
| ACCAGAAACGGAAGAGAGCGCGGGGGATGTGTTTGG | 685 |
| GCAACTTCCGCCCTGAGAAGGGTGGGGCTTCCGTCT | 63000 |
| TTAGAATTTTCCTGTGAACCAGGCGGATGCCCTGCC | 1030 |
| GAGAGTGAGGAAGTGGCTTATCTGGGGATGTGCTTC | 1290 |
| TGGGAGTTGTAGTTTCCTGTTTCCGGCTTCGCTTCG | 20000 |
| TGCAGGGCTGGCAGGAAACAGGAAAGAGGCTAGCAT | 1700 |
| GGGCGGGAAGCGGGGCAGCCGCCGTCCGGAAGCTGG | 585 |
| AGGCAGCGGAACTGACGCCGGCGAGCTTCCGGGGCG | 2550 |
| GAGACAGGAAGTGAGCATCTGCCCACCGGAAGCTGA | 22700 |
| AAGGCCGATAACATCCCCACTTCCTTTTCTCACCTC | 2100 |
| GGAGCCCGGAAGAGGCGCCGTGCACTTCCGGGTCGA | 8940 |

| Sequence | ETS1 binding intensity |
| --- | --- |
| CGGGAGTTCCGCAGCCGCCGCCTTACCGGAACCCAA | 638 |
| CAAAACAGGAACCACAAACCCCAGCTTCCTCTTGCA | 428 |
| CTCGGCAGGAAGCGCCCAGCCTGATTTCCTACAAGT | 3620 |
| TGCGGGGCGGAAGTGACGCACGAGAGGAAGTCCGTC | 13000 |
| CCACCGGAAGGCCGGATGTGTTCCTATCACGTACCC | 19300 |
| CCTGGGACCGGATGTGGTCAGGCTTCCTGAGAGTCG | 27300 |
| TCATCTCTCCTGCAGGAAGGAAGTCCTGCCTCCCAC | 315 |
| ACCGCTCTTTCCGGGTTTGCGAGCGGAAGTGGACGA | 7930 |
| CATTCGCCCGGAAATCTCTGGGAGGAAGTATCAGCA | 3150 |
| ACGTCACTACCTTCCTGACTCCGGAAGCACTTACAG | 2430 |
| CTTCTCACACCGGATGTCTGGGTTCCTGTCTTCCAG | 22600 |
| AGTTATCGGAAGTGATGTGCACAGCCGGATATTCCC | 2230 |
| GCTGCACAAAGGGAAATGCACTTCCTGCCCCAGCAG | 7060 |
| CCTCAGTTTCCTCATTGGCAGAATGGGGAAATGATT | 2070 |
| GTATGTGGTTTCCTGTGTCTTTACATCCTCACCAGT | 26300 |
| TGTGCTCATTTCCTGTCTGCACGTTTCCTTTTCCCC | 42900 |
| AGAGCAGCAGGATATTTCTGTATATCCTGTTTAGCC | 2760 |
| GAATTACATCCTGCCTGCCACGGTAAGGAAACTGCT | 33200 |
| TACCACAAAAGGAAGTTAGAACTTCCTGTACTGACA | 14500 |
| TGGCCCGGAAGCTTCTCTGCTGACCCGGAAGCAGAG | 3960 |
| GCGCGCTTCCTGTGAGGTCAGGTGGGAGGAAACCGC | 31000 |
| ATATTTTATTTCCGCTTGGAGGCAGGAAGGGCCTTG | 14700 |
| CGGCAGGATGGAGTGAGTGCCAGCAGAGGAAATGCC | 188 |
| CCCAGGATGCCCTGCGACTAACCAAGCCGGAAGACG | 373 |
| GCGCGTCTGCGCCGGAAGCGGAAATGGTTGGAGCCC | 10500 |
